Laboratory results: PubChem BioAssay AID252 (DTP/NCI, 2004)
Toxic doses and inconclusive results are not listed. The source holds more than one record for some entries. Only these are listed. An entry can have further records. Values given together differ, and nothing given here explains why; some may be repeats, others may stem from another dose, organism or construct than stated. Brackets with × say how often a value occurs here.

Tested on: BDF1 mice, intracerebral L1210 leukemia, survival T/C
Test: NCI In Vivo Anticancer Drug Screen. Data for tumor model L1210 Leukemia (intracerebral) in B6D2F1 (BDF1) mice
Settings: endpoint: mean survival time, higher = longer survival
Description: The antitumor activity of compounds was measured in mice bearing transplantable tumors. Survival or tumor size were measured and the results are expressed as the measurement made in the treated group (T) divided by the measurement made in the vehicle treated control group (C). The tumor model used in this assay is L1210 Leukemia (intracerebral) in B6D2F1 (BDF1) mice

`O=C1C(NC(=O)C2CCCCC2)=C(N2CC2)C(=O)C(NC(=O)C2CCCCC2)=C1N1CC1` was tested, and the T/C (dose: 100.0 mg/kg/injection, schedule: Q01DX009 (ip), vehicle: Klucel (hydroxypropylcellulose) (HPC)) was 100 % of control, 101 % of control, 160 % of control.
With `COCCOC1=C(N2CC2)C(=O)C(OCCOC)=C(N2CC2)C1=O` the T/C (dose: 0.5 mg/kg/injection, schedule: Q01DX009 (ip), vehicle: saline) was 96 % of control (2×) and 301 % of control and the T/C (dose: 4.0 mg/kg/injection, schedule: Q01DX009 (ip), vehicle: saline) was 105 % of control, 121 % of control, 163 % of control.
For `O=P1(N(CCCl)CCCl)NCCCO1` (stereo unspecified), the T/C (dose: 100.0 mg/kg/injection, schedule: Q01DX001 (ip), vehicle: Klucel (hydroxypropylcellulose) (HPC)) was 115 % of control and 153 % of control.
With `CCC(=O)NC1=C(N2CC2C)C(=O)C(NC(=O)CC)=C(N2CC2C)C1=O` (stereo unspecified) the T/C (dose: 6.25 mg/kg/injection, schedule: Q01DX009 (ip), vehicle: Klucel (hydroxypropylcellulose) (HPC)) was 105 % of control and 411 % of control.
`O=C1C(Cl)=C(N2CC2)C(=O)C(Cl)=C1N1CC1` was tested, and the T/C (dose: 2.5 mg/kg/injection, schedule: Q01DX009 (ip), vehicle: saline) was 102 % of control, 104 % of control, 413 % of control, the T/C (dose: 5.0 mg/kg/injection, schedule: Q01DX009 (ip), vehicle: saline) was 92 % of control, 104 % of control, 413 % of control and the T/C (dose: 10.0 mg/kg/injection, schedule: Q01DX009 (ip), vehicle: saline) was 96 % of control, 103 % of control, 289 % of control.
`CC(CN1CC(=O)NC(=O)C1)N1CC(=O)NC(=O)C1` (stereo unspecified) was tested, and the T/C (dose: 12.5 mg/kg/injection, schedule: Q03HX024 (ip), vehicle: steriod suspending solution) was 116 % of control, 152 % of control, 158 % of control, the T/C (dose: 300.0 mg/kg/injection, schedule: Q04DX003 (ip), vehicle: other) was 112 % of control, 119 % of control, 157 % of control and the T/C (dose: 300.0 mg/kg/injection, schedule: Q04DX003 (ip), vehicle: steriod suspending solution) was 117 % of control, 124 % of control, 157 % of control.
